The record followed here is PMC3973283.

Sequences of proteins named here, by UniProt entry; tags and fusion partners are left off.
UniProt Q9H9B1: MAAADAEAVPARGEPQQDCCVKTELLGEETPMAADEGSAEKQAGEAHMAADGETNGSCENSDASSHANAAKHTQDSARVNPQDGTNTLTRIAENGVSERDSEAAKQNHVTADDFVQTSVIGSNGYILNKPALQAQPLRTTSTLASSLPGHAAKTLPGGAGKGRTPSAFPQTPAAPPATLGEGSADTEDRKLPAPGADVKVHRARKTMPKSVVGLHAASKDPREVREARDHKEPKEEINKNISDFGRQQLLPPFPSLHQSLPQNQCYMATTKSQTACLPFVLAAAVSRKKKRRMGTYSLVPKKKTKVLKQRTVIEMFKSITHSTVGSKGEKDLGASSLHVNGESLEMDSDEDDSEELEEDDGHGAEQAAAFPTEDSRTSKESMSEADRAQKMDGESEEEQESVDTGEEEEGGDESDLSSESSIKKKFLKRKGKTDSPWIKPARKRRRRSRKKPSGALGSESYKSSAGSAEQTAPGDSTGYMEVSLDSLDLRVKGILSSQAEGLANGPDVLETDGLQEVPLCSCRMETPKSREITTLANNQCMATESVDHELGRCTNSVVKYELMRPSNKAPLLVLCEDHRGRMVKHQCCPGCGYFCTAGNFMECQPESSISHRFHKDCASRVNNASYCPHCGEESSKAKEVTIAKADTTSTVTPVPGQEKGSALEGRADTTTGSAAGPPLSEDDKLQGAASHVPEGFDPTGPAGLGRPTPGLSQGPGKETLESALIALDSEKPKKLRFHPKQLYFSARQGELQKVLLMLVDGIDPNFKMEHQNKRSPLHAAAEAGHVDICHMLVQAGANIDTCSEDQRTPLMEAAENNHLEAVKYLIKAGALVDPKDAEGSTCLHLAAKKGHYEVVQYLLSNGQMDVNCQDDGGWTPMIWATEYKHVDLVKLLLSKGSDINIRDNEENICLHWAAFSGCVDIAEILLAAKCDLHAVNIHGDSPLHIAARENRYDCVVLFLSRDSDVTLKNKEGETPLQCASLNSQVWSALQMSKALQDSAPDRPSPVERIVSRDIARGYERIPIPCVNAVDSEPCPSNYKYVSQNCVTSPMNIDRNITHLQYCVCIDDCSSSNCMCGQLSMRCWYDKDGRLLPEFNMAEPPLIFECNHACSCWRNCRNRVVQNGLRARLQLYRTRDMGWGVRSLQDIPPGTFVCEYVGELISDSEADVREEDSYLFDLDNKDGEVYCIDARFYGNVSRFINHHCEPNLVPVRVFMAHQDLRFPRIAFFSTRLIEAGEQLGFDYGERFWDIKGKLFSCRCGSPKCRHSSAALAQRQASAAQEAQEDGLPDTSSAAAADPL
UniProt Q96KQ7: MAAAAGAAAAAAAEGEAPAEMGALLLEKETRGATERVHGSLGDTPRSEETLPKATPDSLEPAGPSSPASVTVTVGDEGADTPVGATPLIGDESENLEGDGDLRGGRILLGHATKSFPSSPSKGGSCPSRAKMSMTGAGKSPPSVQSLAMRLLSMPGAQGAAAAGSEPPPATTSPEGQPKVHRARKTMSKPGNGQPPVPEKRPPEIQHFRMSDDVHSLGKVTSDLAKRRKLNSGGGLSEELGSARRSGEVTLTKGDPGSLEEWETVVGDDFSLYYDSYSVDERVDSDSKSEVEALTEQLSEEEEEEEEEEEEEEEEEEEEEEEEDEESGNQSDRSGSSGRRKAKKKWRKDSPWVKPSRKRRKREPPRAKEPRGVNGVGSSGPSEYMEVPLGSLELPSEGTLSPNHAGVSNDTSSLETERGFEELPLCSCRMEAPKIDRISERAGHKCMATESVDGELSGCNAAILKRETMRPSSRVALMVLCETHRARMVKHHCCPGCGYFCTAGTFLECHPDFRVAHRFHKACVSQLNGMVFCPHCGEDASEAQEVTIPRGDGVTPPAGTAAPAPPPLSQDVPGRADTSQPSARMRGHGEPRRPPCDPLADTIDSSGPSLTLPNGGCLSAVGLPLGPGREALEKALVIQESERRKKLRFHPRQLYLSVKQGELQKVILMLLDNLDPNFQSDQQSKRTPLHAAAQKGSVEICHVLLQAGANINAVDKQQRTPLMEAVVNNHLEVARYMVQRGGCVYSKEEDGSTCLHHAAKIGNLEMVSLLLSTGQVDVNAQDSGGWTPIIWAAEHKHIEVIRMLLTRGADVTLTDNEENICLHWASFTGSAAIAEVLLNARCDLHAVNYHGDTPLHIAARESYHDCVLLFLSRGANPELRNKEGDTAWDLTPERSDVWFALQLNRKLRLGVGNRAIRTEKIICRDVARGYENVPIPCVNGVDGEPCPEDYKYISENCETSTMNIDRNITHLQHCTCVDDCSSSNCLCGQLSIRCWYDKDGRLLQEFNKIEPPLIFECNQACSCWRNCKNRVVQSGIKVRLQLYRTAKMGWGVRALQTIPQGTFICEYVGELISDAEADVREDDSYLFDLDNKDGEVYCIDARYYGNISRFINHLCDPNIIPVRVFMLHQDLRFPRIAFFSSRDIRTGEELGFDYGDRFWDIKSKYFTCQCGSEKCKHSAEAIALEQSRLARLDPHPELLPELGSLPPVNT

One test has as its target T1, GST-Riz1C (UniProt Q13029).
T1 sequence: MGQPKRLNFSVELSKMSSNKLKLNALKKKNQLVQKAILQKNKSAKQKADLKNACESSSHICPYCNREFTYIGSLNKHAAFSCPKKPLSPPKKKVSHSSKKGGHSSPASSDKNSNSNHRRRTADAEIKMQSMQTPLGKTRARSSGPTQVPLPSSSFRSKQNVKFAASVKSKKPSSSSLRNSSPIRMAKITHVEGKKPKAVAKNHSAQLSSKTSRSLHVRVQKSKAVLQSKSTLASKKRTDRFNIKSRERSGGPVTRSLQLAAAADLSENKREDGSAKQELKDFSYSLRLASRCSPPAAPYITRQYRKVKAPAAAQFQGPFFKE
The experiment in a line: pull-down; recombinant His-PR-Set7 proteins incubated in vitro with recombinant GST-Riz1C or GST alone; GST pull-down; Western analysis (Figure 2C); both purified.

The next test addresses T2, FLAG-Riz1C (UniProt Q13029).
T2 sequence: T1 sequence
Description: co-IP; HeLa cells co-transfected with FLAG-Riz1C or FLAG-Riz1ΔC and DBD-PR-Set7 or DBD-G9aC; FLAG-immunoprecipitation; Western analysis (Figure 2D).

Another test addresses T3, FLAG-Riz1ΔC (aa1-1396) (UniProt Q13029).
T3 sequence: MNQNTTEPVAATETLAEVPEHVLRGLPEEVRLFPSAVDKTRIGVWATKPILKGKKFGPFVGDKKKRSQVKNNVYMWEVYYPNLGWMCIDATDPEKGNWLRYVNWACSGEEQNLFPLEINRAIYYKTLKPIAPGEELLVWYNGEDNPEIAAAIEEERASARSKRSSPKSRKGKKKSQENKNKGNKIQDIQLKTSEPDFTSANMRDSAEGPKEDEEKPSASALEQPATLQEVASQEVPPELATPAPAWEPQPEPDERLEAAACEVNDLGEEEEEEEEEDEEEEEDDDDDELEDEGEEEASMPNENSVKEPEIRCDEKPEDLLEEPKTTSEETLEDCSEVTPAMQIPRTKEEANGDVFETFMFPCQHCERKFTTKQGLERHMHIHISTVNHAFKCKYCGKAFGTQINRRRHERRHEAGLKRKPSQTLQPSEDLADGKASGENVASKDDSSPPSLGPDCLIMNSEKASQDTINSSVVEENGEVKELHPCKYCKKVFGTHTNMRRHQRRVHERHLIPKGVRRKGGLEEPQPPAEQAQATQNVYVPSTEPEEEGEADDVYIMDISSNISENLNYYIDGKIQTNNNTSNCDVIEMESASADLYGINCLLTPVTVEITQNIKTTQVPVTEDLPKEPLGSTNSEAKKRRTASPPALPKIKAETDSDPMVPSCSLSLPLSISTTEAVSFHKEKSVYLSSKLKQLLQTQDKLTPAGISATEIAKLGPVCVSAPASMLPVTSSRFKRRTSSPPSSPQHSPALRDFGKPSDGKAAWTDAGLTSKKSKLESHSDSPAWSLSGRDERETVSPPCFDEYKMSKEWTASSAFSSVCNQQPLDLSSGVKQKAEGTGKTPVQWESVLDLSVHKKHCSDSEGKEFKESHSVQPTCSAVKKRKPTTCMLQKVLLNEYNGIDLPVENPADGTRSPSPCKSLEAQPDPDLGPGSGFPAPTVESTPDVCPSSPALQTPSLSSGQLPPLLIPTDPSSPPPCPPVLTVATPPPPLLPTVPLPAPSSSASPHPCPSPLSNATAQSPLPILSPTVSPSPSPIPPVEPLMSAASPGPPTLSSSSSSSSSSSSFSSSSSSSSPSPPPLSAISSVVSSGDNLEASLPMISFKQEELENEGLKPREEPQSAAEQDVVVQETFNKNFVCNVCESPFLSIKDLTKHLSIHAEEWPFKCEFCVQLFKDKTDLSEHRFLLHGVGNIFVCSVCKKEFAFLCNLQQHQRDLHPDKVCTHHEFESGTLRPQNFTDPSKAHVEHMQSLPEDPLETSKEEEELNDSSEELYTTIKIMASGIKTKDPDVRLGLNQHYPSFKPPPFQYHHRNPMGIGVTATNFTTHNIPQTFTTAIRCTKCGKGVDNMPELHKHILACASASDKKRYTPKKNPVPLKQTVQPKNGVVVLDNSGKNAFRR
The description is as above.

The next test addresses epitope-tagged GLP-1 (UniProt Q9H9B1). Description: co-IP; HeLa cells co-transfected; nuclear pellet in IP lysis buffer (50 mM Tris-HCl pH 7.0, 150 mM NaCl, 0.5 mM DTT, 1% NP-40); FLAG- or HA-conjugated beads; Western analysis (Figure 1B).
The next test addresses epitope-tagged G9a (UniProt Q96KQ7). The test is described as above.
In the next test the target is T4, His-S-PR-Set7 (UniProt Q9NQR1).
T4 sequence: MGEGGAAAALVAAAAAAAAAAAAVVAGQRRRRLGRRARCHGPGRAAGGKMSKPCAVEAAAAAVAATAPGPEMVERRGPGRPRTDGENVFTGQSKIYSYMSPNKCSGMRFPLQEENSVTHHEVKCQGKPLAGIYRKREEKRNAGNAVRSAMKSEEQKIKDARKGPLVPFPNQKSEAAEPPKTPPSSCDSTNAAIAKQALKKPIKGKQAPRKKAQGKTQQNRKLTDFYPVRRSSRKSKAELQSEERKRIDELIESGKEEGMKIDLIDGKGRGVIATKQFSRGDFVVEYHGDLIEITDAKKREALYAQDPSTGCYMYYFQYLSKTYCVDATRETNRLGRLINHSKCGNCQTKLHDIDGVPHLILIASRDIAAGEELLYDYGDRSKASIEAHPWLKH
The experiment in a line: pull-down; purified recombinant FLAG-Riz1 truncations incubated in vitro with recombinant His-S-PR-Set7; S-tag-immunoprecipitation; Western analysis (Figure 2B); both purified.

Results are given in words; binding and its absence hold for the method and conditions named. For part of these data: Binding seen in cells or lysates may run through a third protein. Some results given as binding are weak or reduced against the parent protein; the word gives no strength. Where a sequence is shown, tags or fusion partners need not be part of it.

B1: His-S-PR-Set7 (protein, UniProt Q9NQR1 1-393)
chain: T4 sequence
For B1, the binding entry with GST-Riz1C was “binds”.

B2: DBD-PR-Set7 (protein, UniProt Q9NQR1 1-393)
chain: T4 sequence
With B2, the binding entry in the test with FLAG-Riz1C is listed as “binds”; with FLAG-Riz1ΔC (aa1-1396), “no binding”.

B3: Myc-PR-Set7 (protein, UniProt Q9NQR1 1-393)
chain: T4 sequence
In the case of B3, the binding entry with epitope-tagged GLP-1 and in the test with epitope-tagged G9a was “no binding” in each case.

B4: recombinant FLAG-Riz1 C-terminus (aa1397-1719) (domain or fragment, UniProt Q13029-1 1397-1718)
chain: T1 sequence
For the molecule B4, the binding entry with His-S-PR-Set7 is given as “binds”.
